Experiments:
[1] = system: 293T-lacZ cells expressing human LAG-3; assay: In vitro ADCC assay, human PBMC effector cells, β-galactosidase release; type: cell-based; conditions: target 293T-lacZ/hLAG-3 cells, effector human PBMCs, percentage of cells lysed
Outline: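 293T-lacZ cells transiently expressing full-length human LAG-3 were preincubated with antibody at 4° C for 30 min, then cultured overnight at 37° C with human PBMC effectors (Ficoll-separated). β-Galactosidase released into supernatant read by β-Glo luminescence; % lysis = (A−B)/(C−B)×100 versus no-antibody spontaneous and surfactant-lysed maximum release.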

[2] = system: perforin positive CD8 T cells; assay: Perforin positive CD8 T cell number after CD3/CD28 stimulation of human PBMCs for 4 days, flow cytometry; type: cell-based; conditions: hLA212_H4/L2 10 μg/mL, tacrolimus 10 nM, PBMCs of two donors
Description: PBMCs were separated from human peripheral blood by Ficoll centrifugation and added to a 96-well U-bottom microplate in an amount of 4×10^5 cells/well. Human IL-2 (PeproTech, Inc., final concentration: 100 ng/mL) and Dynabeads Human T-Activator CD3/CD28 (Life Technologies Corp., 4×105 beads/well) were added thereto, and T cells were activated by culture for 4 days. The obtained cells were recovered, suspended in a FACS buffer (PBS, 0.1% BSA, and 0.1% sodium azide), and then reacted with Human BD Fc Block (Becton, Dickinson and Company) at room temperature for 10 minutes. Subsequently, the cell surface was stained by reaction at 4° C. for 30 minutes with fluorescently labeled antibodies diluted with a FACS buffer containing a LIVE/DEAD Fixable Dead Cell Stain Kit-near-IR fluorescent reactive dye (manufactured by Invitrogen Corp.), followed by washing with a FACS buffer. […] The data was analyzed using FlowJo (manufactured by Tree Star Inc). After removal of the LIVE/DEAD Fixable Dead Cell Stain Kit-near-IR fluorescent reactive dye-positive dead cells by gating, only the living cells were analyzed by further gating CD3 positive and CD8 positive CD8 T cells. […]

[3] = Single dose administration, toxicity observation; type: in vivo
Description: Further, the hLA212 antibody_H4/L2 was administered to the human LAG-3/human FcγRIIIA double transgenic mice of Example 10 in a single dose, as a result of which, weight loss and other notable toxic events were not observed.

[4] = system: EAE (experimental autoimmune encephalomyelitis) model; assay: EAE (experimental autoimmune encephalomyelitis) model; type: in vivo, human LAG-3/human FcγRIIIA double transgenic mice; conditions: 30 mg/kg intravenous on Days 0 and 7
[5] = system: 293T-lacZ cells not expressing human LAG-3; assay: In vitro ADCC assay on target cells without human LAG-3 (specificity); type: cell-based; conditions: target 293T-lacZ cells without human LAG-3 gene, effector human PBMCs
Description: The ADCC activity of the purified rat anti-human LAG-3 antibodies rLA204, rLA212, rLA225, rLA869, and rLA1264 was investigated by the following method. To a 96-well U-bottom microplate containing 50 μL/well of the antibody solution, was added 50 μL/well of the target cells (which will be hereinafter referred to as 293T-lacZ/hLAG-3 cells) of Example 1)-5-1, followed by standing at 4° C. for 30 minutes. Then, 75 μL/well of effector cells prepared as in Example 1)-5-2 (which was however suspended to 2×10^6 cells/mL) was added thereto, followed by centrifugation at room temperature at 1200 rpm for 5 minutes, and thereafter the cells were cultured overnight under conditions of 37° C. and 5% CO2. On the next day, 50 μl of the supernatant was recovered into a black plate (manufactured by Corning Inc). A solution of β-Glo assay system (manufactured by Promega Corp.) was added thereto at 50 μl/well. The luminescence intensity was measured using a plate reader (ENVISION; manufactured by PerkinElmer, Inc). The percentage of cells lysed by ADCC activity was calculated according to the following formula. Percentage of cells lysed (%)=(A−B)/(C−B)×100 • A: Count of each sample well • B: Average of spontaneous release (wells without antibody added) counts (n=3)
The in vitro ADCC activity of the humanized anti-human LAG-3 antibody hLA212_H4/L2 was evaluated by the method described in Example 7)-2.

B1: hLA212_H4/L2: defucosylated humanized antibody; heavy chain positions 20 to 470 of SEQ ID No: 30, light chain positions 21 to 234 of SEQ ID No: 34 (antibody)
heavy: EVQLVESGGGLVQPGGSLRLSCAASGFTYRSYVMAWVRQAPGKGLEWVASISTGGGNTYYRDSVKGRFTISRDNAKNTLYLQMDSLRAEDTAVYYCAEDMSNSGYGLFDYWGQGTLVTVSSASTKGPSVFPLAPSSKSTSGGTAALGCLVKDYFPEPVTVSWNSGALTSGVHTFPAVLQSSGLYSLSSVVTVPSSSLGTQTYICNVNHKPSNTKVDKRV[left out - human IgG1 Fc]
light: DIQMTQSPSSLSASVGDRVTITCKAGQNVDNNIAWYQQKPGQSPKLLIYYASNRNTGVPSRFSGSGYGTDFTLTISSLQPEDFATYYCQRISNSPYTFGQGTKVEIKRTVAAPSVFIFPPSDEQLKSGTASVVCLLNNFYPREAKVQWKVDNALQSGNSQESVTEQDSKDSTYSLSSTLTLSKADYEKHKVYACEVTHQGLSSPVTKSFNRGEC
With B1 the “ADCC activity on cells expressing human LAG-3” value [1] was “concentration-dependent ADCC activity”, the “number of perforin positive CD8 T cells, compared with the control” value [2] was “evidently reduced” and the “weight loss and other notable toxic events” value [3] was “not observed”. The “weight loss with EAE progression” value [4] was “suppressed”, the “average of the EAE clinical scores as compared with the control antibody-administered group” value ([4]; during the observation period) was ≤ 50% and the “ADCC activity on 293T-lacZ cells not expressing human LAG-3” value [5] was “no ADCC activity”.

B2: hLA212_H3/L2: humanized antibody; heavy chain positions 20 to 470 of SEQ ID No: 30, light chain positions 21 to 234 of SEQ ID No: 34 (antibody)
heavy: EVQLVESGGGLVQPGGSLRLSCAASGFTYRSYVMAWVRQAPGKGLEWVASISTGGGNTYYRDSVKGRFTISRDNAKNTLYLQMDSLRAEDTAVYYCAEDMSNSGYGLFDYWGQGTLVTVSSASTKGPSVFPLAPSSKSTSGGTAALGCLVKDYFPEPVTVSWNSGALTSGVHTFPAVLQSSGLYSLSSVVTVPSSSLGTQTYICNVNHKPSNTKVDKRV[left out - human IgG1 Fc]
light: DIQMTQSPSSLSASVGDRVTITCKAGQNVDNNIAWYQQKPGQSPKLLIYYASNRNTGVPSRFSGSGYGTDFTLTISSLQPEDFATYYCQRISNSPYTFGQGTKVEIKRTVAAPSVFIFPPSDEQLKSGTASVVCLLNNFYPREAKVQWKVDNALQSGNSQESVTEQDSKDSTYSLSSTLTLSKADYEKHKVYACEVTHQGLSSPVTKSFNRGEC
With B2 the “ADCC activity on cells expressing human LAG-3” value [1] was “concentration-dependent ADCC activity against the 293T-lacZ cells expressing human LAG-3, almost comparable to the human chimeric anti-LAG-3 antibody cLA212”.

— patent US12145987B2, “Method for depleting cytotoxic T cells using an anti-LAG-3 antibody composition” (Daiichi Sankyo Company, Limited, priority 2017, dated 2024)
